Reference: PubChem BioAssay AID504832 (National Center for Advancing Translational Sciences (NCATS), 2011)
Out of some 310,000 compounds screened, about 18,000 (5.8%) were called active. The shares of active, inactive and inconclusive entries below differ from those in the screen. The call rests on the fitted dose curve; in most records, active means well fitted inhibition curve with a large enough effect; inconclusive means small, poorly fitted or top-dose-only effect, or another doubt; inactive means no such curve, though single readings can be large or run the other way. Potencies of inconclusive entries are left out as doubtful fits.
Potency means the concentration at half of the fitted maximal effect; tags describe the fitted curve by direction and shape.

Experiment: Primary qHTS for delayed death inhibitors of the malarial parasite plastid, 48 hour incubation
Conditions: P. falciparum luciferase growth in erythrocytes; series mostly up to 28.7 µM
Method in brief: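 Erythrocytes infected with P. falciparum carrying an integrated firefly luciferase reporter (2% hematocrit, 0.1% parasitemia final) were exposed to compounds in RPMI 1640 with 0.5% Albumax at 37 C, 5% CO2. Growth inhibition was scored as reduced luminescence.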
With `Cc1ccccc1C(=O)N1CCC(C(=O)Nc2ccc(C(C)C)cc2)CC1` the Potency was inconclusive [inhibitor, partial curve, poor fit]. For `COc1ccc(NC(=O)Nc2cccnc2)cc1`, the Potency was “inactive”. For `CCOc1cc(C(=O)Nc2nnc(CC)s2)ccc1OCC(=O)N1CCOCC1`, the Potency was active: 0.262 µM. With `Cc1ccc(S(=O)(=O)NC(C)(C)CN2CCC(Cc3ccccc3)CC2)cc1` the Potency was inconclusive [inhibitor, single point]. For `CCC(=O)c1cc(-c2nc3ccccc3n2C)n(C)c1`, the Potency was “inactive”. With `OC(COCc1ccc(Cl)cc1)CN1CC=C(c2ccccc2)CC1` (stereo not drawn) the Potency was active: 9.28 µM. With `O=C(c1cc2nc(-c3cccs3)cc(C(F)(F)Cl)n2n1)N1CCCc2ccccc21` the Potency was inconclusive [inhibitor, single point]. For `Cc1[nH]n(C(N)=S)c(=O)c1N=Nc1cc(-c2ccc(Br)cc2)[nH]n1`, the Potency was “inactive”. With `O=C(OCC(=O)c1ccc([N+](=O)[O-])cc1)/C(=C/c1ccc(Cl)cc1)NC(=O)c1ccccc1` the Potency was “inactive”. In the case of `CCCn1c2c(c(O)c(C(=O)NCCCN(CC)CC)c1=O)CCCC2`, the Potency is reported as inconclusive [inhibitor, single point]. For `N#CC(C(=O)c1ccco1)c1ccccn1` (stereo not drawn), the Potency was “inactive”. With `CCc1c(C(=O)N/N=C/c2ccc(OCc3ccc(F)cc3)c(OC)c2)nnn1-c1nonc1N` the Potency was inconclusive [inhibitor, single point]. With `Cc1ccc(CN2CC(=O)N3[C@H]4c5ccccc5OC[C@@H]4[C@H](c4ccccc4)[C@]3(C)C2=O)cc1` the Potency was active: 9.28 µM. For `COC(=O)c1ccccc1S(=O)(=O)N1CCC(C(=O)NCCC2=CCCCC2)CC1`, the Potency was inconclusive [inhibitor, single point]. With `COc1ccc(CCN2CC(O)=C(c3nc4ccccc4c(=O)[nH]3)C2=N)cc1OC` the Potency was active: 13.1 µM. In the case of `CCOC(=O)[C@H]1[C@H]2COc3ccc(OC)cc3[C@@H]2N2C(=O)c3ccc(F)cc3NC(=O)[C@@]12C`, the Potency is reported as inconclusive [inhibitor, single point]. For `COc1ccc(-n2c(-c3ccccc3)cc3c2CCCC3=O)cc1`, the Potency was inconclusive [inhibitor, partial curve, poor fit]. In the case of `CC(=O)c1cccc(NC(=O)c2ccc(CN3CCc4ccccc4C3)cc2)c1`, the Potency is reported as active: 14.7 µM. With `CC(=O)c1cccc(S(=O)(=O)N2CCCC(c3nc4c(nnn4Cc4cccc(Cl)c4)c(=O)[nH]3)C2)c1` (stereo not drawn) the Potency was active: 7.38 µM. In the case of `Cc1oc(-c2cccc(Cl)c2)nc1CN1CCC(C(=O)NCc2cccnc2)CC1`, the Potency is reported as active: 2.62 µM. With `CC(C)NC(=O)NC(=O)COC(=O)c1c2c(nc3ccccc13)CCC2` the Potency was inconclusive [inhibitor, single point]. For `COc1ccc(CN(C(=O)c2ccc(C)cc2)c2cccc(N)c2)cc1`, the Potency was inconclusive [inhibitor, single point]. With `O=C(NCC(c1ccco1)N1CCc2ccccc21)c1ccccc1F` (stereo not drawn) the Potency was inconclusive [inhibitor, partial curve]. In the case of `O=C(COc1ccccc1)Nc1ccc(Cl)cn1`, the Potency is reported as inconclusive [inhibitor, single point]. In the case of `CC(C)Cn1c(N)c(C(=O)CSc2nncs2)c(=O)n(C)c1=O`, the Potency is reported as inconclusive [inhibitor, partial curve]. With `CCOC(=O)Cc1c(C)nc2c(-c3ccc(Cl)cc3)c(C)nn2c1C` the Potency was inconclusive [inhibitor, single point]. For `CCC(C)(C)NC(=O)C(c1cccc(OC)c1)N(C(=O)c1ccn[nH]1)c1cccc(OC)c1` (stereo not drawn), the Potency was inconclusive [inhibitor, single point]. In the case of `COc1cccc(N2CCN(C(=O)C3CCCN(c4ncnc5c4nc4n5CCCCC4)C3)CC2)c1` (stereo not drawn), the Potency is reported as inconclusive [inhibitor, full curve]. With `O=C(O)CCSc1ncnc2sc(-c3ccccc3)cc12` the Potency was “inactive”. For `CS(=O)(=O)N(CC(=O)N/N=C/c1cc2c(cc1Br)OCO2)c1ccccc1Br`, the Potency was inconclusive [inhibitor, partial curve, poor fit]. For `Cc1ccc(/C=N/NC(=O)c2ccc(C(=O)N/N=C/c3ccc(C)s3)o2)s1`, the Potency was inconclusive [inhibitor, partial curve]. In the case of `N=C1/C(=C\c2ccc(OC(=O)c3ccco3)cc2)C(=O)N=C2SC=NN12`, the Potency is reported as inconclusive [inhibitor, full curve, poor fit]. With `COc1ccc(C(=O)N2CCCCC2C(=O)Nc2ccc(-n3nc(C)cc3C)cc2)o1` (stereo not drawn) the Potency was “inactive”. With `O=C(Nc1ccn(Cc2ccccc2F)n1)c1ccc(COc2ccc(Br)cc2)cc1` the Potency was inconclusive [inhibitor, full curve, poor fit]. With `COc1ccccc1CN1C[C@@H]2C[C@@H](c3[nH]c4ccc(C)cc4c3C)N3CCC[C@@]23C1=O` the Potency was active: 7.38 µM. For `CCCNC(=O)c1[nH]c(C)c(C(C)=O)c1C`, the Potency was inconclusive [inhibitor, partial curve, poor fit]. In the case of `COc1cc(/C=N\NC(=O)CN2CCOCC2)ccc1OCC(=O)Nc1ccc(C)c(C)c1`, the Potency is reported as inconclusive [inhibitor, partial curve, poor fit]. For `CCc1nc(Nc2ccc(N3CCN(C(C)=O)CC3)cc2)c2oc3ccccc3c2n1`, the Potency was active: 10.4 µM. In the case of `COc1ccc(C2=CC(=O)C[C@H](c3ccc(F)cc3)C2)c(OC)c1`, the Potency is reported as inconclusive [inhibitor, partial curve, poor fit]. For `O=C(c1ccco1)N1CCC(c2ccccc2)C1` (stereo not drawn), the Potency was “inactive”. With `O=C(c1nc(-c2ccccc2)n(-c2ccccc2)n1)N1CCN(S(=O)(=O)c2ccccc2)CC1` the Potency was active: 9.28 µM. For `CCCCCn1c(=O)[nH]c2cc(C(=O)NCCCN3CCCCC3C)ccc2c1=O` (stereo not drawn), the Potency was active: 9.28 µM. In the case of `COc1ccc(OC)c(C(c2nnnn2CC2CCCO2)N2CCN(C3CCCC3)CC2)c1` (stereo not drawn), the Potency is reported as inconclusive [inhibitor, single point].
